Results: PubChem BioAssay AID1347165 (National Center for Advancing Translational Sciences (NCATS), 2019)
In all, about 220,000 compounds went through this assay and about 5,700 (2.6%) were called active. This list was built around the results that the source calls inconclusive (neither active nor inactive); the mix of calls is not that of the screen. The call rests on the fitted dose curve; in most records, active means well fitted inhibition curve with a large enough effect; inconclusive means small, poorly fitted or top-dose-only effect; inactive means no such curve, though single readings can be large or run the other way. A potency beside an inconclusive call is a rough fit, not a confirmed value.
Further: nearly all actives have a fitted effect of over 70% in size.
Potency means the concentration at half of the fitted maximal effect; tags describe the fitted curve by direction and shape.
Wherever activity change, negative = inhibition is given: 0% is about no effect.

These molecules were tested against Lysine-specific demethylase 5B (Homo sapiens) (UniProt Q9UGL1) (assay: Primary screen for KDM5B Histone Demethylases FDH-coupled qHTS). Conditions: FDH-coupled NADH fluorescence (FDH is formaldehyde dehydrogenase); activity change, negative = inhibition: at 57.7 µM (top of the series) unless noted.
UniProt Q9UGL1, sequence (Q9UGL1 whole entry, looked up): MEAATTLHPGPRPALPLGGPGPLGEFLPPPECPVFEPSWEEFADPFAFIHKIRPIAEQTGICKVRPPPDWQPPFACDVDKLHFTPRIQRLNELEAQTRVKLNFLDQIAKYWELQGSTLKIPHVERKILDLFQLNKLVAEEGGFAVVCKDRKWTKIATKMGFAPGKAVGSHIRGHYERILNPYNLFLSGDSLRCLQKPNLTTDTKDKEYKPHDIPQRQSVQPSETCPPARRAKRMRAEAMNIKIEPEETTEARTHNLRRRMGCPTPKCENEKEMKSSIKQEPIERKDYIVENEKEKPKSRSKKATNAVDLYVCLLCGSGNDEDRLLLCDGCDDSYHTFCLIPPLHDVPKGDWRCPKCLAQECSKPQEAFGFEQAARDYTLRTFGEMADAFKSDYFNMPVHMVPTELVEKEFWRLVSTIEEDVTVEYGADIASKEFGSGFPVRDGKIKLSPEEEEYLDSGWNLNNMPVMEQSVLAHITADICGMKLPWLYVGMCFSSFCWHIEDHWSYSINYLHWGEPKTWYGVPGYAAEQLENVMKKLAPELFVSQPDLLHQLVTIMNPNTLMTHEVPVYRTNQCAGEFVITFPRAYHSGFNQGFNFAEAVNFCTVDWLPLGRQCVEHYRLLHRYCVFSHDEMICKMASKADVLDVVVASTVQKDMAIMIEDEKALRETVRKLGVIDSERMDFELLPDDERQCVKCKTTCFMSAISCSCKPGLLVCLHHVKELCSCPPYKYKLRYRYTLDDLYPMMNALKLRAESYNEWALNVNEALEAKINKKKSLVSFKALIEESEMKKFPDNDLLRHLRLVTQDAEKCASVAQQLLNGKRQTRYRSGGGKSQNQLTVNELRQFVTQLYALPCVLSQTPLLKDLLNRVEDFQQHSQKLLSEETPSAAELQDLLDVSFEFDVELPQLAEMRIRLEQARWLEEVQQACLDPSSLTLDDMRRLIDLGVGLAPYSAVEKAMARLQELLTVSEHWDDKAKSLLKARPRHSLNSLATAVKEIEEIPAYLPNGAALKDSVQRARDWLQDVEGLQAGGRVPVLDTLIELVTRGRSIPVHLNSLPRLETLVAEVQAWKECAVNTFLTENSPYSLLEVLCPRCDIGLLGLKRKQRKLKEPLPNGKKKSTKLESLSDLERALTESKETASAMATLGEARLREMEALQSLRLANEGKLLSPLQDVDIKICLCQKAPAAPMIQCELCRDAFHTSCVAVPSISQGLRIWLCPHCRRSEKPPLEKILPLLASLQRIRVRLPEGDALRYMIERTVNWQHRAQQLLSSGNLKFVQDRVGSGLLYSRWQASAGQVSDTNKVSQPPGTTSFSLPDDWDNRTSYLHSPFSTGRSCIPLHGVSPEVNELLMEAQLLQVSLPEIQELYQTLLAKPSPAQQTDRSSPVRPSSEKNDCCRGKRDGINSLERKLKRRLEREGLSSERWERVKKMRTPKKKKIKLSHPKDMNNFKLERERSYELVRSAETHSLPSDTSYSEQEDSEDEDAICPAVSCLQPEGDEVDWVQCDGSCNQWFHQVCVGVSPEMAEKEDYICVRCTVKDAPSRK
Method in brief: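 Here, H3K4me3 peptide (12.5 µM in substrate mix) is demethylated by KDM5BΔAP, 200 nM final, after 10 min compound exposure. Formaldehyde product is coupled through FDH (0.25 U/mL in mix) to NADH fluorescence; 30-min ΔRFU feeds dose-response curves.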
In the case of `O=C(NC1CCc2nn(CC3CC3)c(=O)n2CC1)c1ccc2nc[nH]c2c1` (stereo unspecified), the Potency is reported as inconclusive: 1.78 µM [inhibitor, partial curve, poor fit].
`CCCS(=O)(=O)N1CCN(Cc2cc(=O)n3nc(-c4ccc(OC)cc4)sc3n2)CC1` was tested, and the Potency was inconclusive: 25.1 µM [inhibitor, partial curve, poor fit].
`COc1ccc(-c2cn3c(n2)CO[C@@H](CNCc2ccc(Cl)cc2)C3)cc1` was tested, and the Potency was inconclusive: 31.6 µM [inhibitor, single point].
For `C[C@H](N)C(=O)N1CCC(n2nccc2NC(=O)Nc2cccc(F)c2)CC1`, the Potency was inconclusive: 7.94 µM [inhibitor, partial curve].
`Oc1ccccc1-c1nc2ccccc2s1` was tested, and the “activity change, negative = inhibition” value was inactive: -29%.
In the case of `CCOc1ccccc1CNC(=O)c1cc2c(=O)n(Cc3cccnc3)ccc2nc1C`, the Potency is reported as inconclusive: 31.6 µM [inhibitor, partial curve, poor fit].
With `Cc1ccc(CNC(=O)CCc2c[nH]c3ccccc23)s1` the “activity change, negative = inhibition” value was inactive: 11.3%.
`Cc1ccc(NC(=O)Cn2ccn3nc(-c4ccccc4)c(CO)c3c2=O)c(Cl)c1` was tested, and the Potency was inconclusive: 39.8 µM [inhibitor, single point].
For `O=C(OCc1cccc2ccccc12)c1cc2ccccc2[nH]1`, the Potency was inconclusive: 28.2 µM [inhibitor, partial curve, poor fit].
`COc1cccc2cc(-c3nc(-c4ccccc4F)no3)c(=O)oc12` was tested, and the Potency was inconclusive: 39.8 µM [inhibitor, single point].
With `CCOc1ccccc1C(=O)N1CCN(c2cc(-c3cccs3)[nH]n2)CC1` the “activity change, negative = inhibition” value was inactive: -5.95%.
For `O=C(Cn1c(SCc2ccc(F)cc2)nc2cccnc21)Nc1ccccc1F`, the Potency was inconclusive: 28.2 µM [inhibitor, partial curve, poor fit].
With `CCCCN(C)CC(O)Cn1cc(/C=C/C(=O)c2ccc(Br)cc2)c2ccccc21` (stereo unspecified) the Potency was inconclusive: 35.5 µM [inhibitor, single point].
With `CCCS(=O)(=O)N1CC(=O)N(c2cccc(Cl)c2)C(C)(C(=O)NC2CCCCC2)C1` (stereo unspecified) the “activity change, negative = inhibition” value was inactive: -15.2%.
For `CC(NC(=O)CCc1ncc(-c2c(F)cccc2F)o1)c1ccco1` (stereo unspecified), the “activity change, negative = inhibition” value was inactive: -9.62%.
`CC(C)Cn1cc(NC(=O)N2CCN(c3ccc(F)cc3)CC2)c2ccccc2c1=O` was tested, and the Potency was inconclusive: 22.4 µM [inhibitor, partial curve, poor fit].
With `CN(C)C(CNC(=O)c1cc2ccccc2oc1=O)c1cccs1` (stereo unspecified) the Potency was inconclusive: 25.1 µM [inhibitor, partial curve, poor fit].
In the case of `CC1(C(=O)NCC2CC2)CCc2cnc(Nc3ccccc3)nc21` (stereo unspecified), the “activity change, negative = inhibition” value is reported as inactive: -4.25% [at 86.2 µM].
`COC(=O)c1ccc(C(=O)NCC2(c3ccccc3)CCC2)cc1` was tested, and the “activity change, negative = inhibition” value was inactive: -9.53%.
In the case of `Cc1ccc(C)c(C(=O)N[C@@H]2CN(c3ccncn3)C[C@H]2CO)c1`, the “activity change, negative = inhibition” value is reported as inactive: 17.4%.
For `O=C(O)c1ccnc(-c2ccnc(NCCCN3CCCC(O)C3)n2)c1` (stereo unspecified), the Potency was inconclusive: 28.2 µM [inhibitor, partial curve, poor fit].
For `CCN(CC)CCNC(=O)CCc1c(C)nc2c(c(C)nn2-c2ccc(C)cc2)c1C`, the Potency was inconclusive: 25.1 µM [inhibitor, partial curve, poor fit].
With `CCC(CC)Nc1nnc(C)c(C)c1C#N` the “activity change, negative = inhibition” value was inactive: -14.7%.
With `COc1ccc(C(=O)N[C@H]2CO[C@H]3[C@@H]2OC[C@@H]3Nc2nccc(-c3cccs3)n2)cc1` the Potency was inconclusive: 25.1 µM [inhibitor, single point].
In the case of `Cc1cc2cc(-c3c(C)noc3C)nc(Nc3cccc(F)c3)c2o1`, the Potency is reported as inconclusive: 35.5 µM [inhibitor, partial curve, poor fit].
With `CCOc1ccc(C(=O)N[C@@H]2CN(c3ncccn3)C[C@H]2CO)cc1` the Potency was inconclusive: 31.6 µM [inhibitor, partial curve, poor fit].
For `CC1=CC(C)(C)NC(=S)N1c1cccc2cc(S(=O)(=O)O)ccc12`, the Potency was inconclusive: 39.8 µM [inhibitor, single point].
In the case of `Cc1noc(NC(=O)c2ccc(Br)o2)n1`, the “activity change, negative = inhibition” value is reported as inactive: 26.6%.
For `CCOc1ccccc1CN1CCC2(CCN([S+](=O)([O-])c3ccc(C)cc3)CC2)Oc2ccccc21`, the Potency was inconclusive: 10 µM [inhibitor, partial curve, poor fit].
With `COc1cccc(CC(=O)NC2CCN(c3cn[nH]c(=O)c3)CC2)c1` the “activity change, negative = inhibition” value was inactive: -1.04%.
In the case of `CCOc1ccc(NC(=O)Cc2coc3cc(C)c(C(C)C)cc23)cc1S(=O)(=O)N1CCCC1`, the Potency is reported as inconclusive: 39.8 µM [inhibitor, single point].
`CN(CC(=O)Nc1cccc(F)c1)C(=O)c1cccc(-n2cccc2)c1` was tested, and the Potency was inconclusive: 25.1 µM [inhibitor, single point].
`CC(=O)N1CCN(C(=O)c2cccc3c(=O)c(C)c(-c4ccccc4)oc23)CC1` was tested, and the “activity change, negative = inhibition” value was inactive: -15.6%.
With `COC(=O)c1c(NC(=O)c2ccc(OC)cc2OC)sc2c1CCCCC2` the Potency was inconclusive: 1.12 µM [inhibitor, partial curve, poor fit].
For `CCN1CCN(c2csc3ccc(Br)cc3c2=O)CC1`, the Potency was inconclusive: 7.08 µM [inhibitor, partial curve, poor fit].
In the case of `CCn1c(=O)c2cc(C(=O)NCc3cc(OC)ccc3OC)sc2c2ccccc21`, the Potency is reported as inconclusive: 39.8 µM [inhibitor, single point].
For `CN(C)c1ccc(Nc2cccc3nccnc23)cc1`, the Potency was inconclusive: 39.8 µM [inhibitor, single point].
For `COc1cccc(CCn2ccnc2-c2cc3n(n2)CCCNC3)c1OC`, the Potency was inconclusive: 5.01 µM [inhibitor, partial curve].
With `c1ccc(OCc2cc(CC3(NCc4cccc5c4OCO5)COC3)no2)cc1` the “activity change, negative = inhibition” value was inactive: -26.8% [at 86.2 µM].
In the case of `Cn1c(=O)c2c(ncn2CC(=O)Nc2ccccc2Cl)n(C)c1=O`, the “activity change, negative = inhibition” value is reported as inactive: -12.5%.
With `N#Cc1cccc(CN2CCC3(CC2)CN(c2ncccn2)CC3CO)c1` (stereo unspecified) the Potency was active: 28.2 µM.
`COc1ccc2[nH]c3c(c2c1)CCN(C(=O)CCC1CCCC1)C3c1ccc(F)cc1` (stereo unspecified) was tested, and the Potency was inconclusive: 35.5 µM [inhibitor, single point].
`O=C(O)c1ccc(/C=C/C(=O)c2ccccc2Cl)cc1` was tested, and the “activity change, negative = inhibition” value was inactive: -5.63%.
For `O=C(CC1N=C2c3ccccc3N=C(SCc3ccc(F)cc3)N2C1=O)NCCc1ccccc1` (stereo unspecified), the Potency was inconclusive: 5.62 µM [inhibitor, full curve, poor fit].
For `CC(=O)N1C[C@@H]2CCCN3CCC[C@@H]([C@H]23)[C@H]1CCCC(=O)N1CCN(C2CCN(C)CC2)CC1`, the Potency was inconclusive: 20 µM [inhibitor, single point].
For `Cc1cccc(Cn2c(-c3ccccc3)nc3ccccc32)c1`, the Potency was inconclusive: 39.8 µM [inhibitor, single point].
`O=C(NNS(=O)(=O)c1ccccc1[N+](=O)[O-])c1cc2ccccc2cc1O` was tested, and the Potency was inconclusive: 28.2 µM [inhibitor, single point].
In the case of `CC(C)N1CCN(C(=O)c2cc3cn(C4CC4)cc3s2)CC1`, the Potency is reported as inconclusive: 7.94 µM [inhibitor, partial curve].
`N#Cc1ccccc1S(=O)(=O)N1CCN(CC(O)CN2CCOCC2)CC1` (stereo unspecified) was tested, and the Potency was inconclusive: 3.55 µM [inhibitor, full curve, poor fit].
`O=Cc1ccc(OCc2cccc(Br)c2)cc1` was tested, and the Potency was inconclusive: 17.8 µM [inhibitor, partial curve, poor fit].
For `CC(=O)Nc1c(C)noc1/C=C\c1ccc(S(=O)(=O)Nc2ccc(C)cc2)cc1`, the Potency was inconclusive: 20 µM [inhibitor, partial curve, poor fit].
With `Cc1ccc2c(c1)-c1nc(-c3ccc4c(c3)NC(=O)CO4)cc(-c3ccccc3)c1CO2` the Potency was inconclusive: 2.82 µM [inhibitor, partial curve, poor fit].
With `COc1ccccc1NC(=O)Cn1c(C)cc(C)c(C#N)c1=O` the “activity change, negative = inhibition” value was inactive: -11.7%.
`O=C(NC1CCN(Cc2ccccc2)CC1)c1ccc(Cn2c(=O)c3ccccc3n(Cc3ccc(Cl)cc3)c2=O)cc1` was tested, and the Potency was inconclusive: 28.2 µM [inhibitor, single point].
In the case of `COc1ccc(NC(=O)Nc2cc(-c3cn4cccnc4n3)ccc2C)cc1`, the Potency is reported as inconclusive: 44.7 µM [inhibitor, single point].
For `COc1cccc(NC(=O)COc2cc(C)cc3oc(=O)cc(C)c23)c1`, the “activity change, negative = inhibition” value was inactive: -1.19%.
In the case of `Cc1ccc(-n2c(C3CCN(C(=O)COc4ccc(Cl)cc4)CC3)n[nH]c2=O)cc1`, the “activity change, negative = inhibition” value is reported as inactive: -14.1%.
`N#Cc1ccc(CN2CCCC3(C2)NC(=O)c2ccccc2O3)cc1` (stereo unspecified) was tested, and the “activity change, negative = inhibition” value was inactive: -19% [at 86.2 µM].
`O=C1c2c(nc(COc3cc(F)cc(F)c3)n2Cc2ccccc2)NCCN1Cc1ccccc1F` was tested, and the Potency was inconclusive: 35.5 µM [inhibitor, partial curve, poor fit].
For `Cc1cc(C)c2nc(C)cc(Nc3cccc(C(=O)O)c3)c2c1`, the activity change, negative = inhibition was inconclusive: -39.1% [inhibitor].
With `CC1C(=O)Nc2ccccc2N1C(=O)c1ccc(F)cc1F` (stereo unspecified) the “activity change, negative = inhibition” value was inactive: -16.2%.
`CCOc1cc(C(=O)Nc2cc3c(cc2N2CCCC2)n(C)c(=O)c(=O)n3C)cc(OCC)c1OCC` was tested, and the Potency was inconclusive: 15.8 µM [inhibitor, partial curve, poor fit].
For `O=C(N[C@@H]1CCOC[C@H]1Oc1ccccn1)c1cccc2c1OCCO2`, the “activity change, negative = inhibition” value was inactive: -2.16%.
For `O=C(c1ccn(C(F)F)n1)N1CCCC(c2ccccc2)(c2ccccc2)C1`, the “activity change, negative = inhibition” value was inactive: -22.2%.
`COc1ccccc1NC(=O)N1CC[C@@H](CC(=O)O)[C@@H](CC2=NCCc3cc(F)ccc32)C1` was tested, and the Potency was inconclusive: 39.8 µM [inhibitor, partial curve, poor fit].
For `COc1cc(OC)cc(C(=O)NC2CCN(c3cc(-c4ccccc4)[nH]n3)CC2)c1`, the Potency was inconclusive: 15.8 µM [inhibitor, partial curve, poor fit].
